Test results reported in the supplement of paper PMC11417369.
Some of the results follow.

System: PfHDP1 homeodomain (GST-tagged)
Test: gcPBM binding intensity (ln(normalized median fluorescence intensity)); higher = stronger DNA binding
Summary of the method: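 An Agilent 4 × 180k array of primer-extended double-stranded 36-bp intergenic genomic probes, with negative controls, was incubated for 1 h with GST-tagged P. falciparum DNA-binding domains expressed in E. coli. Alexa488 anti-GST antibody detected bound protein, scanned at 488 nm. Binding intensity is the highest Masliner-normalised natural-log median intensity across replicate spots of either probe orientation.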

| Sequence | gcPBM binding intensity (ln) |
| --- | --- |
| TTATAATATATATCTGCATGTTGCTTTGGGGCTTTA [TGCATGCA_site712] | 7.07 |
| GAAAATTCTTAAGGCACACACATATAAGATATATAC [CACACA_site6410] | 6.49 |
| ATAAAATATAAAAACGCACACAATTATAAGGGTGTA [CACACA_site177] | 6.96 |
| ATATATATATATAAAGTGCAAAAATGAAAGTAAGAC [GTGCAC_site9850] | 9.27 |
| GTATATGAATGTTCATGTACATAATAAAATATATAA [XGTACX_site250] | 6.57 |
| AAATTAAAATATAATACACACATAAAAAAAAAATCA [CACACA_site5918] | 6.62 |
| AAAACAAACACATTTACACACATAAATAAATCAATT [CACACA_site4122] | 6.67 |
| TTTATTTTTCCATATGCACACACACCGTATATATAA [CACACA_site8293] | 9.97 |
| ATACATACATACATACGTACATATGTATATATATAT [XGTACX_site8498] | 8.86 |
| TATTCATTCTATAAAACACACAAATATTTTTGTATC [CACACA_site666] | 6.86 |
| ATGTTCTATAAATATGAACACACGACATATTATTTA [CACACA_site1799] | 6.33 |
| ATATATATATATATATGTACATATTATTCTCATTGT [XGTACX_site6259] | 9.4 |
| TATATTTAATTACATGAACACACATTATATATTTTT [CACACA_site8969] | 6.39 |
| TGTAGTATCAATTTTTGTACATAACACATATGTATA [XGTACX_site613] | 6.3 |
| CATATGATATTATTTTGTACTTATTACAAATATGAA [XGTACX_site7929] | 6.33 |
| GAGCATTACACATATACACACATATATATAAACATA [CACACA_site5515] | 7.64 |
| TATAATAATATTTATTGTACGATTAGATTAATTCAT [XGTACX_site612] | 5.99 |
| ATATATATATATATTTGTACATAATATATATATGCA [XGTACX_site1795] | 9.16 |
| AAAAAAAAATAGAAATGTACAAATTGTAATAATTCC [XGTACX_site6182] | 6.35 |

| Sequence | gcPBM binding intensity (ln) |
| --- | --- |
| CAATTAAACAATTAAACATGCAAAATGATATAATAA [TGCATGCA_site240] | 6.33 |
| AAACAATTTAGACATACACACAAAAATAATATTATA [CACACA_site384] | 6.78 |
| ATTAAAAAAAAGCTCATCGAAATGTCTTATATAAAT [CACACA_negctrl_site912] | 6.59 |
| ATATATATATATATATGTACATATTGTATTATTCAC [XGTACX_site6511] | 9.47 |
| CACGAAAATTTGTAGAGTACATATATAATTAATATA [XGTACX_site3808] | 6.63 |
| AAATGAATTTAACAATGTACACATATATTATAAATA [XGTACX_site1449] | 6.2 |
| TACATAATAATAAGGCGTACATAAAAATTAAAAATT [XGTACX_site8769] | 6.68 |
| AAAACGATTTTTTGCACACACATAATAAGCAGAACA [CACACA_site3871] | 10.4 |
| ATATATATATGTATATGTACTCATTCTTCTGTGTTT [XGTACX_site5014] | 8.59 |
| ATATACATTCTATATACATGCATACTTCATTTTGTG [TGCATGCA_site966] | 6.79 |
| AATAATCATGATCATAGTACGTATGAATACAAAAAA [XGTACX_site265] | 6.86 |
| TATCTACTTAAATAAAATAAAAATAATAAATAAAAA [TGCATGCA_negctrl_site312] | 6.46 |
| ATAAAACAAAGACACACACACATACACAAAAAAAAA [CACACA_site7752] | 6.83 |
| TTTTATTTATTCCTACTTTTTTATTTATTTATTTAA [XGTACX_negctrl_site415] | 6.27 |
| ACATTATGTCATAAATGTACACATACATATACATAC [XGTACX_site8998] | 6.43 |
| CGTATGTATATATATATACACACTTCTGTGATACGA [CACACA_site1949] | 6.65 |
| ATGTATAATATTTTCACACACAAGAAAAAAGAAAAG [CACACA_site3591] | 6.78 |
| ATTTATATATATTTATGTACGTATTAATTTTTTTTT [XGTACX_site3877] | 6.62 |
| AATGAATCCTTATATACACACATTATTATAGTATAG [CACACA_site7454] | 6.53 |

| Sequence | gcPBM binding intensity (ln) |
| --- | --- |
| AAAGAAAATTAAAAAGAACACACAAATATATATATA [CACACA_site9196] | 8.6 |
| ATTATACCGTATTTTGCATGTAGTATTTTCATTTTA [TGCATGCA_site1021] | 6.8 |
| ATTAATTATGTATTTCAACAAAGAAGTGTTATATAT [GTGCAC_negctrl_site215] | 6.4 |
| TCTTTATCCTTTCTCTTTTTATTAATTATAATATTC [TGCATGCA_negctrl_site584] | 7.15 |
| ATTATTTGTAATATAACACACACAAAAAAAGACTCG [CACACA_site8487] | 6.66 |
| TATCATTTATATATGTGTACTTATTTATTTATTTAT [XGTACX_site7961] | 6.66 |
| ATATATACCTAAGACACACACATATATATATATATA [CACACA_site764] | 9.32 |
| AAATGTACAGGACGCACACACATATATATATATATA [CACACA_site3674] | 9.42 |
| AAGGAAAATATTAACTGTACATATAAAATATATATA [XGTACX_site5310] | 6.33 |
| ACAATATTATTATTTAACCATACACAATTATATGTC [XGTACX_negctrl_site378] | 6.51 |
| GTAATATTAATATAATGTACAAAATGAAACATATAT [XGTACX_site6219] | 6.42 |
| CAGTTTAATTTACATAGTACATAATATTTTAATTTT [XGTACX_site1793] | 6.13 |
| AGTATACTCAAACACACACACACAAAAAAAAAAAAA [CACACA_site4398] | 6.59 |
| TAAGAAATAAATAGTACACACATAGACACCCACCGA [CACACA_site1516] | 7.1 |
| TAGATACATAAACACACACACACATACATATATACA [CACACA_site9139] | 6.83 |
| TATTTCACTTTTTGTCTGCACTAAAATTTTATGGTA | 7.82 |
| GGTATATAAAAATATTGTACTTAAAAAAATATGTAT [XGTACX_site6253] | 6.19 |
| AAGTATAGTCTTACATATATATATATATATATATAT [GTGCAC_negctrl_site280] | 9.36 |
